Sequences with one replicate were seen in a single cluster, so their values are uncertain.
What follows are sequences tested on ATP (assay: switch fluorescence ratio, 500 uM ATP over buffer (Cy3 cluster intensity, sum of 5 cycles each) (fold (ratio)); higher = stronger signal-on switching upon ATP binding; sequences stand for … in TCGTCGGCAGCGTCAGATGTGTATAAGAGACAGTTTTTTTTTTTTTTTTTTTTTTTTT…TC). Conditions: aptamer strand: ATP DNA aptamer (quencher-CACCTGGGGGAGTATTGCGGAGGAAGG + anchor), 100 nM annealed; ATP concentration: 500 uM; one replicate.
Procedure, shortened: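 Clusters carrying Cy3-labelled switching strands on a modified Illumina MiSeq flow-cell were annealed to 100 nM quencher-labelled ATP aptamer and imaged in selection buffer. They were imaged again after 15 min with 500 uM ATP at 22 °C, over five buffer/ATP cycles with NaOH stripping and re-annealing in between. For each cluster, the fluorescence ratio is the summed Cy3 intensity of the target cycles divided by that of the buffer cycles, averaged per switch-domain sequence. Clusters outside 100-1000 RFU were left out.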
For TAAAATACCC, the switch fluorescence ratio was 1.05. In the case of TAAACAGGAT, the switch fluorescence ratio is reported as 1. For TAAACATCCC, the switch fluorescence ratio was 1.05. TAAACCGCGC was tested, and the switch fluorescence ratio was 2.55. With TAAACCGTGC the switch fluorescence ratio was 2.29. Sequence TAAACGCTC has a switch fluorescence ratio of 1.03. TAAACGGCT was tested, and the switch fluorescence ratio was 1.02. TAAACGGGG showed a switch fluorescence ratio of 0.983. TAAACGTAGC gave a switch fluorescence ratio of 1.01. TAAACGTATC was tested, and the switch fluorescence ratio was 1.13. TAAACGTCTG was tested, and the switch fluorescence ratio was 1.04. With TAAACTACG the switch fluorescence ratio was 1.03. TAAACTAGTG showed a switch fluorescence ratio of 1.05. TAAACTTTCA was tested, and the switch fluorescence ratio was 1.34. TAAAGAGTCC showed a switch fluorescence ratio of 0.983. TAAAGATATA was tested, and the switch fluorescence ratio was 1. Sequence TAAAGATTAG has a switch fluorescence ratio of 1.01. In the case of TAAAGATTTA, the switch fluorescence ratio is reported as 1.03. TAAAGCAATG was tested, and the switch fluorescence ratio was 1.29. Work on TAAAGCATCG yielded a switch fluorescence ratio of 0.988. TAAAGCGAGG was tested, and the switch fluorescence ratio was 1.04. TAAAGTATTA gave a switch fluorescence ratio of 0.984. In the case of TAAAGTGT, the switch fluorescence ratio is reported as 0.976. TAAATCCCCT was tested, and the switch fluorescence ratio was 0.999. Work on TAAATCGATT yielded a switch fluorescence ratio of 1.01. TAAATCGGCC gave a switch fluorescence ratio of 1.14. TAAATGAGTC was tested, and the switch fluorescence ratio was 0.991. TAAATGCCGT showed a switch fluorescence ratio of 1.07. TAAATGGAGT gave a switch fluorescence ratio of 0.97. Work on TAAATTGTAT yielded a switch fluorescence ratio of 1.02. TAAATTTTA showed a switch fluorescence ratio of 1.02. TAACAAAAGT showed a switch fluorescence ratio of 1.08. TAACAAGCCC was tested, and the switch fluorescence ratio was 0.922. Work on TAACAATTAT yielded a switch fluorescence ratio of 0.996. For TAACAGCCAC, the switch fluorescence ratio was 1.15. With TAACAGCCTT the switch fluorescence ratio was 1.02. For TAACAGGCAG, the switch fluorescence ratio was 0.993. TAACCAGC showed a switch fluorescence ratio of 1.01. Work on TAACCGTCAT yielded a switch fluorescence ratio of 1.05. TAACCTATTT gave a switch fluorescence ratio of 1.01. Sequence TAACCTGGGG has a switch fluorescence ratio of 1. With TAACCTTCTT the switch fluorescence ratio was 2.13. With TAACGAAGGC the switch fluorescence ratio was 1.02. TAACGAGCGG showed a switch fluorescence ratio of 0.942. With TAACGATACA the switch fluorescence ratio was 1.29. With TAACGTTGCC the switch fluorescence ratio was 1.01. TAACGTTGTT showed a switch fluorescence ratio of 0.991. In the case of TAACTAACTC, the switch fluorescence ratio is reported as 1.04. TAACTAATTC was tested, and the switch fluorescence ratio was 0.975. TAACTAGAAC gave a switch fluorescence ratio of 1.01. TAACTAGGCC showed a switch fluorescence ratio of 1.02. For TAACTATGAC, the switch fluorescence ratio was 1.13. With TAACTCATAT the switch fluorescence ratio was 1.01. Sequence TAACTGAG has a switch fluorescence ratio of 0.998. TAACTGGTTT was tested, and the switch fluorescence ratio was 0.992. TAACTGTCAC showed a switch fluorescence ratio of 1.32. Sequence TAACTTAACT has a switch fluorescence ratio of 1.03. TAACTTAGAT was tested, and the switch fluorescence ratio was 0.964. Work on TAACTTGCCA yielded a switch fluorescence ratio of 1. Work on TAACTTTGTT yielded a switch fluorescence ratio of 0.978. With TAAGAAACAA the switch fluorescence ratio was 0.967. Sequence TAAGAACGC has a switch fluorescence ratio of 0.963. Work on TAAGAAGC yielded a switch fluorescence ratio of 1.03. In the case of TAAGAAGGTA, the switch fluorescence ratio is reported as 1.01. TAAGACCGAG gave a switch fluorescence ratio of 0.985. With TAAGAGATCT the switch fluorescence ratio was 1.02. In the case of TAAGATAGGC, the switch fluorescence ratio is reported as 0.984. TAAGATGGGT was tested, and the switch fluorescence ratio was 1.01. Sequence TAAGCAATAG has a switch fluorescence ratio of 3.66. TAAGCAGAGT gave a switch fluorescence ratio of 1. TAAGCATTGT was tested, and the switch fluorescence ratio was 1.01. TAAGCCAGCT was tested, and the switch fluorescence ratio was 0.981. TAAGCCCTAA was tested, and the switch fluorescence ratio was 0.997. For TAAGCCGACG, the switch fluorescence ratio was 1.14. With TAAGCCGGAA the switch fluorescence ratio was 1.04. TAAGCGGACT gave a switch fluorescence ratio of 1.02. Sequence TAAGCGTACC has a switch fluorescence ratio of 1.09. Sequence TAAGCTCAGC has a switch fluorescence ratio of 1.04. With TAAGCTCATG the switch fluorescence ratio was 0.993. With TAAGCTGTTT the switch fluorescence ratio was 0.986. In the case of TAAGGAATAG, the switch fluorescence ratio is reported as 1.1. With TAAGGACATC the switch fluorescence ratio was 1.06. For TAAGGAGAGA, the switch fluorescence ratio was 0.999. Work on TAAGGCAGGC yielded a switch fluorescence ratio of 1.05. For TAAGGCCGCA, the switch fluorescence ratio was 1.08. For TAAGGGATAT, the switch fluorescence ratio was 1. Work on TAAGGGCCCC yielded a switch fluorescence ratio of 0.981. TAAGGTACGG gave a switch fluorescence ratio of 1.06. TAAGGTATAT was tested, and the switch fluorescence ratio was 1.01. TAAGGTCCGC was tested, and the switch fluorescence ratio was 1.09. Work on TAAGGTCGCT yielded a switch fluorescence ratio of 0.991. Sequence TAAGGTCTT has a switch fluorescence ratio of 1.07. In the case of TAAGTAACTT, the switch fluorescence ratio is reported as 1.01. Work on TAAGTAAGAA yielded a switch fluorescence ratio of 0.974. Sequence TAAGTCAAGC has a switch fluorescence ratio of 1.05. For TAAGTCAGGA, the switch fluorescence ratio was 1.01. TAAGTGGCAT showed a switch fluorescence ratio of 0.974. With TAAGTTCGCT the switch fluorescence ratio was 0.993. In the case of TAATAAGAAC, the switch fluorescence ratio is reported as 0.978. With TAATAAGAGT the switch fluorescence ratio was 0.992. Sequence TAATAATGAT has a switch fluorescence ratio of 1.01. For TAATACAGCG, the switch fluorescence ratio was 1.04. TAATACTTGA gave a switch fluorescence ratio of 1.03. With TAATATAAAG the switch fluorescence ratio was 0.978. Sequence TAATCAAATA has a switch fluorescence ratio of 1. With TAATCAAGT the switch fluorescence ratio was 1. Sequence TAATCCTTGC has a switch fluorescence ratio of 1.88. TAATCGATG gave a switch fluorescence ratio of 0.945. TAATCGATGT was tested, and the switch fluorescence ratio was 1.02. With TAATCGGCTA the switch fluorescence ratio was 1.03. Sequence TAATCGTCAA has a switch fluorescence ratio of 1.52. Sequence TAATCTAGCT has a switch fluorescence ratio of 1.02. Sequence TAATCTGGGA has a switch fluorescence ratio of 0.976. Work on TAATCTGTCT yielded a switch fluorescence ratio of 0.982. TAATCTGTTT showed a switch fluorescence ratio of 0.991. TAATGAATCA showed a switch fluorescence ratio of 0.955. With TAATGCGTGC the switch fluorescence ratio was 0.995. Work on TAATGGAGAG yielded a switch fluorescence ratio of 1.01. In the case of TAATGTAGAC, the switch fluorescence ratio is reported as 0.951. In the case of TAATGTTCT, the switch fluorescence ratio is reported as 0.983. With TAATTAGAAA the switch fluorescence ratio was 1.04. TAATTATGAA gave a switch fluorescence ratio of 0.986. Sequence TAATTCAGTG has a switch fluorescence ratio of 0.961. Work on TAATTCTGTA yielded a switch fluorescence ratio of 1.05. In the case of TAATTGCCTA, the switch fluorescence ratio is reported as 0.99. With TAATTTACTG the switch fluorescence ratio was 1.13. TAATTTATTC gave a switch fluorescence ratio of 1.02. For TAATTTGGGG, the switch fluorescence ratio was 0.963. In the case of TACAAAAACA, the switch fluorescence ratio is reported as 0.979. TACAAAAATG showed a switch fluorescence ratio of 1.02. TACAAAATTA gave a switch fluorescence ratio of 1.02. Sequence TACAACCCAC has a switch fluorescence ratio of 1.36. Work on TACAACTAGT yielded a switch fluorescence ratio of 1.02. TACAAGAGA showed a switch fluorescence ratio of 0.976. In the case of TACAAGTATG, the switch fluorescence ratio is reported as 1.04. With TACACAACCA the switch fluorescence ratio was 1.17. Work on TACACGATC yielded a switch fluorescence ratio of 0.983. TACACTCGGG showed a switch fluorescence ratio of 0.977. TACACTGCTC gave a switch fluorescence ratio of 1.13. TACACTTCCC was tested, and the switch fluorescence ratio was 1.26. Work on TACAGACAT yielded a switch fluorescence ratio of 1.11. Sequence TACAGATCTT has a switch fluorescence ratio of 0.968. For TACAGGACAC, the switch fluorescence ratio was 1.11. In the case of TACAGGGGAG, the switch fluorescence ratio is reported as 1.02. In the case of TACATAACGG, the switch fluorescence ratio is reported as 1.06. TACATAATCG was tested, and the switch fluorescence ratio was 1.03. Work on TACATATCCT yielded a switch fluorescence ratio of 1.04. TACATATGCC was tested, and the switch fluorescence ratio was 1.05. In the case of TACATGGTGT, the switch fluorescence ratio is reported as 1.11. TACATTCGTA showed a switch fluorescence ratio of 1.02. TACATTGCAT was tested, and the switch fluorescence ratio was 1.01. Sequence TACCAAAGGG has a switch fluorescence ratio of 1.05. Work on TACCAGCGTT yielded a switch fluorescence ratio of 1.02. For TACCAGGTCG, the switch fluorescence ratio was 1.14. With TACCCAGCAG the switch fluorescence ratio was 1.06. Sequence TACCCAGCT has a switch fluorescence ratio of 1.04. Work on TACCCATTTT yielded a switch fluorescence ratio of 1.02. In the case of TACCCCACGG, the switch fluorescence ratio is reported as 1.63. With TACCCCCGGG the switch fluorescence ratio was 1.18. TACCCTAAGC gave a switch fluorescence ratio of 1.05. Sequence TACCCTGGAG has a switch fluorescence ratio of 1.02. TACCCTTGGA showed a switch fluorescence ratio of 1.02. TACCGAACCA gave a switch fluorescence ratio of 1.15. TACCGCATTT was tested, and the switch fluorescence ratio was 1.59. Sequence TACCGCCACA has a switch fluorescence ratio of 1.41. For TACCGCCTGG, the switch fluorescence ratio was 1. Work on TACCGGGAGG yielded a switch fluorescence ratio of 1. TACCGGTACT was tested, and the switch fluorescence ratio was 1.07. TACCGGTCAT gave a switch fluorescence ratio of 0.974. In the case of TACCGGTCGC, the switch fluorescence ratio is reported as 1.03. With TACCTAAGTC the switch fluorescence ratio was 0.99. Work on TACCTCGCGC yielded a switch fluorescence ratio of 1.78. In the case of TACCTGATGG, the switch fluorescence ratio is reported as 1.02. Sequence TACCTGGGTT has a switch fluorescence ratio of 1.03. Work on TACCTTCTAA yielded a switch fluorescence ratio of 1.13. With TACCTTTGTC the switch fluorescence ratio was 1. For TACGAACGTA, the switch fluorescence ratio was 1.1. Work on TACGAAGTAA yielded a switch fluorescence ratio of 0.936. TACGAAGTTA was tested, and the switch fluorescence ratio was 0.978. Sequence TACGACTCAT has a switch fluorescence ratio of 1.17. For TACGAGAAGG, the switch fluorescence ratio was 1.03. TACGAGACTC showed a switch fluorescence ratio of 1.12. TACGAGATAA was tested, and the switch fluorescence ratio was 1.03. TACGATCGGT showed a switch fluorescence ratio of 0.975. TACGATTAGG showed a switch fluorescence ratio of 1.01. For TACGATTTTG, the switch fluorescence ratio was 1.02. With TACGCCAGAT the switch fluorescence ratio was 1.09. Work on TACGCCTTGG yielded a switch fluorescence ratio of 1.01. TACGCTACGG showed a switch fluorescence ratio of 1.53. In the case of TACGGAAATA, the switch fluorescence ratio is reported as 1.05. TACGGACATC was tested, and the switch fluorescence ratio was 1.37. Work on TACGGACTGC yielded a switch fluorescence ratio of 1.54. For TACGGCCTAA, the switch fluorescence ratio was 0.993. TACGGCTGAG gave a switch fluorescence ratio of 1.01. Sequence TACGGCTGCT has a switch fluorescence ratio of 1.06. Work on TACGGGCTTC yielded a switch fluorescence ratio of 0.988. Sequence TACGGGGAC has a switch fluorescence ratio of 1.17. With TACGGTGCAT the switch fluorescence ratio was 1.07. Work on TACGTAGGCC yielded a switch fluorescence ratio of 1.11. For TACGTAGGCG, the switch fluorescence ratio was 1. Sequence TACGTATTCG has a switch fluorescence ratio of 1.02.

— the supplement of paper PMC10126150
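Note: ATP exposure 15 min at 22 °C before imaging.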
